# Assay results reported in PubChem BioAssay AID485344 (National Center for Advancing Translational Sciences (NCATS), 2010).
# Hit rate of the full screen: of about 340,000 compounds, about 6,900 (2%) were called active. Rule as the data show it: active = inhibition above about 30%; inactive = below that, where a call was filed. The entries are a selection whose mix differs from that of the whole data set. Entries without a call were filed so in the source.
# Target: D(2) dopamine receptor (Homo sapiens) (UniProt P14416)
# Assay: HTS Assay for Allosteric Antagonists of the Human D2 Dopamine Receptor: Primary Screen for Antagonists; also: 0% is about no effect
# Conditions: HEK293 TREx D2 cells, calcium flux, dopamine EC80; at 10 µM; stronger effect = higher value
# In short: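 Measurement of antagonist activity uses fluorescent calcium dye in inducible HEK293 T-REx D2 cells: 10 s baseline, compound addition with 180 s read, EC80 dopamine addition with a further 180 s read.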
# Chain of UniProt P14416 (P14416 whole entry, looked up): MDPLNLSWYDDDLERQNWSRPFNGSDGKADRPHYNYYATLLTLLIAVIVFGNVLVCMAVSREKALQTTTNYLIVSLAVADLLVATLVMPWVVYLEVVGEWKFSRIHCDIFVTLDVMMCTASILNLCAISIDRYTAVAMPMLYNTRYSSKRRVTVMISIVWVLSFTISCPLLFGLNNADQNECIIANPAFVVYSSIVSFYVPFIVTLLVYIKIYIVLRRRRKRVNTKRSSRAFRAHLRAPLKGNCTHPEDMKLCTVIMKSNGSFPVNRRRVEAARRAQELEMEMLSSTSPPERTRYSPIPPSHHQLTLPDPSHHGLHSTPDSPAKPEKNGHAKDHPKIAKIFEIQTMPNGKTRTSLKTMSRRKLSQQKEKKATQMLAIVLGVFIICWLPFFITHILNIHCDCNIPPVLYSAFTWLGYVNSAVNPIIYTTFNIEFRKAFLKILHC
row,SMILES,inhibition
1,CCOC(=O)c1sc2cccc(F)c2c1S(=O)(=O)Nc1ccccc1F,14%
2,O=C(CSc1nnc(-c2ccc(Cl)cc2)c(-c2ccc(Cl)cc2)n1)NC1CCCC1,-6.82%
3,Cc1ccc(-c2nc(CNC(=O)NC3CCCCC3)c(C)o2)cc1,12.6%
4,CC(=O)c1cccc(NC(=O)Nc2cc3c(cc2N2CCCC2)n(C)c(=O)n3C)c1,-12.4%
5,CCc1ccc(C(=O)Nc2cccc(-c3nc4cc(C(C)C)ccc4o3)c2)cc1,-3.24%
6,CCn1cc(C(=O)NCc2ccccc2Cl)c(=O)c2cc(S(=O)(=O)N3CCCCCC3)ccc21,4.31%
7,CCOc1ccc(Nc2oc(-c3ccc(COc4ccc(C)cc4)o3)nc2C#N)cc1,-4.11%
8,CC1CCCN(S(=O)(=O)c2cc(C(=O)NCCc3ccccc3)n(C)c2)C1 (stereo unspecified),-7.12%
9,COc1ccc(CNC(=O)c2ccc3c(c2)CCN3S(=O)(=O)c2ccccc2)cc1,-16.3%
10,Cc1ccccc1CNC(=O)c1ccc(Cn2c(SCc3ccccc3)nc3cccnc32)cc1,3.96%
11,O=C(Nc1cccs1)Nc1cccnc1Cl,active: 36.7%
12,CC(=O)N(CCC1(C(C)C)CCOC(C)(C)C1)Cc1ccco1 (stereo unspecified),active: 38.4%
13,CCC1(c2ccccc2)NC(=O)N(CC(=O)NNC(=O)CCN2CCN(c3ccccc3)CC2)C1=O (stereo unspecified),active: 88.6%
14,COc1ccc(OC)c(S(=O)(=O)NCc2ccc3c(c2)CCN3C(=O)c2cccc(C)c2)c1,2.44%
15,Cc1cccc(N2C(=O)N(Cc3ccc(C(C)(C)C)cc3)c3ccccc3S2(=O)=O)c1,-25.4%
16,CCCOCc1cc(CN2CCN(c3ccccc3OC)CC2)c(O)c2ncccc12,2.37%
17,O=C(NCc1ccc(Cl)cc1)c1cnc(N2CCOCC2)c2ccccc12,1.52%
18,COc1ccccc1NC(=O)C1=C(C)Nc2nc(SCC(=O)c3ccc(C)cc3)nn2C1c1ccc(F)cc1 (stereo unspecified),0.721%
19,Cc1ccc(CSCCNC(=O)CN(c2cccc(C)c2C)S(=O)(=O)c2ccccc2)cc1,-13.4%
20,CC(C)COc1ccc(C(=O)N2CCC(c3nc4ccccc4s3)CC2)cc1,3.24%
21,Cc1ccc2occ(CC(=O)Nc3c(C(=O)Nc4ccc(Cl)cc4)oc4ccccc34)c2c1,-1.86%
22,O=C(CC1N=C2c3ccccc3N=C(SCC(=O)Nc3ccccc3F)N2C1=O)NCc1ccc2c(c1)OCO2 (stereo unspecified),7.69%
23,CN(C(=O)CSc1nc2ccccc2[nH]1)c1ccc(F)cc1,3.41%
24,Cc1ccc(CSc2nncn3c2cc2sccc23)cc1,-7.96%
25,COc1ccc(N2CCN(c3nc4ccccc4n4c(C)nnc34)CC2)cc1,6.39%
26,CCOC(=O)CC(NS(=O)(=O)c1cc(-c2cc(C)no2)ccc1C)c1ccc(C)cc1 (stereo unspecified),5.34%
